Laboratory results reported in paper PMC4336329 (PLoS ONE, 2015).
The whole screen tested about 310,000 compounds, of which about 14,000 (4.5%) showed an effect of 50% or more. Effects have a minus sign here. This is one part of the list.
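Note: peak tail current of the secondary pulse compared with the same well before compound.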

These compounds were tested against human ether-à-go-go-related gene (hERG) potassium channel (human, UniProt Q12809) (assay: primary screen, population patch clamp on CHO cells stably expressing hERG).
human ether-à-go-go-related gene (hERG) potassium channel, sequence (Q12809 whole entry, looked up): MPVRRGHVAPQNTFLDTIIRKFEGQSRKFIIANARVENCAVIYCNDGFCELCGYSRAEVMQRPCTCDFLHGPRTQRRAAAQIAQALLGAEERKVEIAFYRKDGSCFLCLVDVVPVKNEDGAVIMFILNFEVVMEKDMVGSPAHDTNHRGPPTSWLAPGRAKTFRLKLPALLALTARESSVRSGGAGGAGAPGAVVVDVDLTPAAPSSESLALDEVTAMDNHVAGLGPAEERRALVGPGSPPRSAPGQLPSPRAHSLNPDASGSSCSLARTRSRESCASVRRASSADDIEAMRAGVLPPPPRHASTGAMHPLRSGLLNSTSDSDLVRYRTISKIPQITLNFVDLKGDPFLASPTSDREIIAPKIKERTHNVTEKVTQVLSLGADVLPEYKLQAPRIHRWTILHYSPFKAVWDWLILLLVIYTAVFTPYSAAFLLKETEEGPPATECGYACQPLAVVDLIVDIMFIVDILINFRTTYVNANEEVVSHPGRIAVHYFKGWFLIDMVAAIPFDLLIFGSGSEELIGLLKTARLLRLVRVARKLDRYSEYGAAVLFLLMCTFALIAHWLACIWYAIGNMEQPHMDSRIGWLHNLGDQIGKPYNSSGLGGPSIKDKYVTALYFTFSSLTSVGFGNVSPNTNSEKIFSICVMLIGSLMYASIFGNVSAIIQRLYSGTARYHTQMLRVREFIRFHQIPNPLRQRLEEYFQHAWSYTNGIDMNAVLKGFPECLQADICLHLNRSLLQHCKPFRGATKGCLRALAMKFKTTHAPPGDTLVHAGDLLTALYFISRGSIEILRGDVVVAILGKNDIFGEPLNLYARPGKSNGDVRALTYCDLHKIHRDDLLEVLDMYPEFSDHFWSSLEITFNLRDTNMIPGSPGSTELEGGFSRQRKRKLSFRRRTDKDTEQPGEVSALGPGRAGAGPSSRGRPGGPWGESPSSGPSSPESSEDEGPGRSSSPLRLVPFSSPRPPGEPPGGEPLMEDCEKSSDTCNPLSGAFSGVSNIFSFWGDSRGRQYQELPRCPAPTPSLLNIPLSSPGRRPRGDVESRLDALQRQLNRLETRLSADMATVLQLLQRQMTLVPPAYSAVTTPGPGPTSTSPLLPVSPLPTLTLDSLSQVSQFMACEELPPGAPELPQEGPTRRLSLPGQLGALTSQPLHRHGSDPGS
With CC(CCc1ccccc1)NC(=O)COC(=O)c1ccc(NC(N)=O)cc1 (stereo not shown) the “hERG current change (%, negative = inhibition) at 10uM” value was -6.05%.
For Cc1nc2c(c(-c3ccccc3)c1C#N)C(=O)c1ccccc1-2, the “hERG current change (%, negative = inhibition) at 10uM” value was 13.8%.
With O=C(O)c1cccc2c3c([nH]c12)CCCC3 the “hERG current change (%, negative = inhibition) at 10uM” value was 18%.
With CCOC(=O)CC1(NC(=O)C2CCC(=O)N(Cc3ccccc3OC)C2)CCCCC1 (stereo not shown) the “hERG current change (%, negative = inhibition) at 10uM” value was 9.56%.
For O=C(CSc1nc2ncc(Cl)cc2[nH]1)c1c[nH]c2ccccc12, the “hERG current change (%, negative = inhibition) at 10uM” value was 18.1%.
In the case of CCc1ccc(C2C(C#N)=C(N)OC3=C2C(=O)CCC3)s1 (stereo not shown), the “hERG current change (%, negative = inhibition) at 10uM” value is reported as -6.73%.
For COc1ccccc1NC(=O)COC(=O)C1CCN(/C=C/C(=O)C(F)(F)F)CC1, the “hERG current change (%, negative = inhibition) at 10uM” value was -49.6%.
For O=c1c(C=Nc2cccnc2Cl)c(O)n(CCCCl)c(=O)n1C1CCCCC1, the “hERG current change (%, negative = inhibition) at 10uM” value was -15.4%.
For CN(c1ccc(Cl)cc1)S(=O)(=O)c1nnc(NC(=O)C(C)(C)C)s1, the “hERG current change (%, negative = inhibition) at 10uM” value was 17.8%.
Cc1cc(C)nc(NC(N)=NC2CCCCC2)n1 was tested, and the “hERG current change (%, negative = inhibition) at 10uM” value was -25.8%.
For CC(=O)N1CCc2cc(Br)cc(S(=O)(=O)N3CCCCC3)c21, the “hERG current change (%, negative = inhibition) at 10uM” value was 7.18%.
In the case of CCCNS(=O)(=O)c1cccc2cccnc12, the “hERG current change (%, negative = inhibition) at 10uM” value is reported as -6.32%.
CC(C)(C)C(=O)Nc1ccc(S(=O)(=O)N2CCC(c3nc4ccccc4[nH]3)CC2)cc1 was tested, and the “hERG current change (%, negative = inhibition) at 10uM” value was 12.7%.
For COc1ccccc1C(=O)COC(=O)CN1C(=O)NC2(CCCC2)C1=O, the “hERG current change (%, negative = inhibition) at 10uM” value was 12.8%.
With Cc1cc(Nc2ccc(O)cc2)ccc1N the “hERG current change (%, negative = inhibition) at 10uM” value was 14.1%.
In the case of Cc1ccc(S(=O)(=O)CCC(=O)N2CCN(c3ccc([N+](=O)[O-])cc3)CC2)cc1, the “hERG current change (%, negative = inhibition) at 10uM” value is reported as -70.8%.
For COc1cccc(NC(=O)[C@@H](NC(=O)N2CCn3c2nc2ccccc23)C(C)C)c1, the “hERG current change (%, negative = inhibition) at 10uM” value was -0.0266%.
With COc1ccc(NC(=O)N2CCCC(C(=O)Nc3cccc(C)c3C)C2)cc1 (stereo not shown) the “hERG current change (%, negative = inhibition) at 10uM” value was -9.89%.
For CC(=O)Nc1ccc(S(=O)(=O)N2CCN(C(=O)c3ncoc3-c3ccccc3F)CC2)cc1, the “hERG current change (%, negative = inhibition) at 10uM” value was 11.6%.
For COc1ccc(S(=O)(=O)N2c3cc(Cl)ccc3Oc3nc4ccccc4nc32)cc1, the “hERG current change (%, negative = inhibition) at 10uM” value was 2.25%.
In the case of COc1ccccc1Oc1cn[nH]c1-c1ccc(O)cc1O, the “hERG current change (%, negative = inhibition) at 10uM” value is reported as 2.81%.
COC(C(=O)N/N=C(\C)c1ccc(O)cc1)c1ccccc1 (stereo not shown) was tested, and the “hERG current change (%, negative = inhibition) at 10uM” value was 0.0978%.
With CCN1C(=O)[C@H]2[C@@H](c3ccc(-c4ccc(C(C)=O)cc4)cc3)N3CCC[C@@]3(C(=O)OC)[C@H]2C1=O.O=C(O)C(F)(F)F the “hERG current change (%, negative = inhibition) at 10uM” value was -5.42%.
COc1ccccc1C1NC(c2ccccc2OC)C(C)C(=O)C1C (stereo not shown) was tested, and the “hERG current change (%, negative = inhibition) at 10uM” value was -22.5%.
In the case of COC(=O)C1=C(C(C)=O)C(c2ccc(C(=O)OC)cc2)n2nnnc2N1 (stereo not shown), the “hERG current change (%, negative = inhibition) at 10uM” value is reported as 10.9%.
For CC(=O)c1cccc(NC(=O)[C@@H](NC(N)=O)C(C)C)c1, the “hERG current change (%, negative = inhibition) at 10uM” value was 33.1%.
For O=C(CCNC(=O)c1ccco1)Nc1ccc(OC(F)F)c(Cl)c1, the “hERG current change (%, negative = inhibition) at 10uM” value was -26.8%.
With CCOC(=O)c1ccc(-n2c(CCC(=O)O)ccc2-c2cccs2)cc1 the “hERG current change (%, negative = inhibition) at 10uM” value was 13.4%.
For CC(=O)OCC(=O)c1c[nH]c2ccccc12, the “hERG current change (%, negative = inhibition) at 10uM” value was 11.7%.
In the case of Cn1c(=O)[nH]c(=O)c2c1nc(N1CCOCC1)n2CC(=O)c1ccccc1, the “hERG current change (%, negative = inhibition) at 10uM” value is reported as 9.68%.
With O=C(NNC(=S)Nc1ccccc1)c1cccc(Br)c1 the “hERG current change (%, negative = inhibition) at 10uM” value was 4.84%.
COc1cc(/C=C/C(=O)O)cc(S(=O)(=O)Nc2ccc3cn[nH]c3c2)c1OC was tested, and the “hERG current change (%, negative = inhibition) at 10uM” value was 9.74%.
CC(C)c1ccc(NC(=O)COc2nnc(-c3cccs3)c(-c3cccs3)n2)cc1 was tested, and the “hERG current change (%, negative = inhibition) at 10uM” value was 15.6%.
With N#Cc1ccccc1CSC1=NCCS1 the “hERG current change (%, negative = inhibition) at 10uM” value was 23%.
In the case of COc1cc(/C=N/NC(=O)c2ccccn2)ccc1OC(=O)c1ccc(Br)cc1, the “hERG current change (%, negative = inhibition) at 10uM” value is reported as 1.06%.
In the case of COC(=O)[C@@H]1C[C@@H]2CC[C@@H](O)C[C@@H]2N1Cc1ccc(OC)cc1, the “hERG current change (%, negative = inhibition) at 10uM” value is reported as 0.551%.
For Cc1c(Cl)cccc1NC(=S)NCCC(c1ccccc1)c1ccccc1, the “hERG current change (%, negative = inhibition) at 10uM” value was 7.85%.
O=C1NC(c2ccccc2)=NC1(NS(=O)(=O)c1ccc(Cl)cc1)C(F)(F)F (stereo not shown) was tested, and the “hERG current change (%, negative = inhibition) at 10uM” value was -2.26%.
CC(=O)Nc1ccc(S(=O)(=O)N2CCN(c3nc(NC4CCCC4)c4ccccc4n3)CC2)cc1 was tested, and the “hERG current change (%, negative = inhibition) at 10uM” value was -75.8%.
With COc1ncc(-c2ccc3c(c2)S(=O)(=O)c2cccc(C(=O)O)c2C3=O)cn1 the “hERG current change (%, negative = inhibition) at 10uM” value was 12.6%.
For COc1ccc(N2CCN(CCNC(=O)Nc3ccc(Cl)cc3)CC2)cc1, the “hERG current change (%, negative = inhibition) at 10uM” value was -60.7%.
COc1ccc(-c2noc(COc3ccc(C)c(C)c3)n2)cc1OC was tested, and the “hERG current change (%, negative = inhibition) at 10uM” value was 3.69%.
In the case of Cc1nnc2sc(-c3ccc(-c4ccc(Cl)c(C(F)(F)F)c4)o3)nn12, the “hERG current change (%, negative = inhibition) at 10uM” value is reported as 3.66%.
With CCCOc1ccc(Oc2ccc(S(=O)(=O)N3CCN(C)CC3)cn2)cc1 the “hERG current change (%, negative = inhibition) at 10uM” value was -10.9%.
For O=C(CSc1ccc2c(c1)OCCO2)Nc1ccc2c(c1)OCO2, the “hERG current change (%, negative = inhibition) at 10uM” value was 1.43%.
In the case of CCC1CCCCN1CCCNC(=O)c1nn(C)c2c1CS(=O)(=O)c1ccccc1-2 (stereo not shown), the “hERG current change (%, negative = inhibition) at 10uM” value is reported as -26%.
With Cc1ccc(NC(=O)c2nc[nH]c2C(=O)N2CCCCC2)c(C(=O)c2ccccc2)c1 the “hERG current change (%, negative = inhibition) at 10uM” value was -15.3%.
For C=CCOC(=O)C1=C(C)NC(=O)NC1C1CC=CCC1 (stereo not shown), the “hERG current change (%, negative = inhibition) at 10uM” value was 3.8%.
For O=C(Nc1cccc(O)c1)c1noc2c1CCc1ccccc1-2, the “hERG current change (%, negative = inhibition) at 10uM” value was -30%.
With CCc1nccn1CCC(=O)N1CCCC(N2CCN(c3ccccc3F)CC2)C1 (stereo not shown) the “hERG current change (%, negative = inhibition) at 10uM” value was -16.8%.
With CCCn1nnnc1NC(=O)COc1ccc(Cl)c(C)c1 the “hERG current change (%, negative = inhibition) at 10uM” value was 5.38%.
With C=CCn1c(=NC(=O)c2cc(-c3cccs3)nc3ccccc23)sc2cc(S(N)(=O)=O)ccc21 the “hERG current change (%, negative = inhibition) at 10uM” value was 13.1%.
COc1ccccc1OCCn1cc(/C=C(\C#N)C(=O)NCc2cccs2)c2ccccc21 was tested, and the “hERG current change (%, negative = inhibition) at 10uM” value was 17.4%.
In the case of CCN1C(=O)/C(=C2\C=Cc3ccccc3N2CC)OC1=S, the “hERG current change (%, negative = inhibition) at 10uM” value is reported as 13.5%.
CCC1(c2ccccc2)NC(=O)N(CC(=O)Nc2ccccc2N2CCCCC2)C1=O (stereo not shown) was tested, and the “hERG current change (%, negative = inhibition) at 10uM” value was -15.8%.
